The list shows a part of the results. Cut-off read from the data, not from the text of the source: active = 3.2 or more and inactive = the rest. Most of these values are background signal.

The chains are these.
B1: BRDT_Y335 (peptide)
chain: EYKDAYKFAAD
B2: BRIP1_Y921_YF (peptide)
chain: FSTSPYLLEAA
B3: BST2_Y6_T4I_YF (peptide)
chain: MASISYDFCRV
B4: BOD1_Y82_A81V (peptide)
chain: DTKPVYQNLRQ
B5: BRDT_Y331_YF (peptide)
chain: MDNQEYKDAFK
B6: BRIP1_Y921 (peptide)
chain: YSTSPYLLEAA
B7: BRCA2_Y71_A75P (peptide)
chain: QRKPSYNQLPS
B8: BRDT_Y335_K336T (peptide)
chain: EYKDAYTFAAD
B9: BRIP1_Y921_S919P (peptide)
chain: YSTPPYLLEAA
B10: BRD2_Y715 (peptide)
chain: KPRKPYTIKKP
B11: BRCA2_Y2624_I2627F_YF (peptide)
chain: WVFNHYRWFIW
B12: BMPR1A_Y453_YF (peptide)
chain: GIVEEYQLPFF
B13: BMPR1A_Y458_M460T_YF (peptide)
chain: FQLPFYNTVPS
B14: BPGM_Y92 (peptide)
chain: LNERHYGALIG
B15: BMPR2_Y247 (peptide)
chain: NEKNIYRVPLM
B16: BMS1_Y651 (peptide)
chain: KEEEDYKEENN
B17: BRCA2_Y2621_W2626C_YF (peptide)
chain: SRIWVYNHFRC
B18: BMS1_Y651_K652R (peptide)
chain: KEEEDYREENN
B19: BRDT_Y331 (peptide)
chain: MDNQEYKDAYK
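Note: displayed peptides selected on beads carrying the immobilized SH2 domain, with library peptides lacking any tyrosine serving as negative controls.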

One assay deals with SHP2 C-SH2 domain E139D. Nature of the assay: enrichment score (SH2-bound / input frequency) (ratio); bacterial display of known human phosphotyrosine sites (pTyr-Var adds point mutants) read by sequencing; higher = stronger binding; tyrosines were phosphorylated by kinases first. As to conditions: peptide library: pTyr-Var.
In the case of B1, the enrichment score was inactive: 0.861.

For the molecule B2, the enrichment score is inactive: 1.19.

As to B3, the enrichment score was inactive: 0.872.

As to B4, the enrichment score is inactive: 3.16.

Consider B5, for which the enrichment score is inactive: 0.581.

Consider B6, for which the enrichment score was inactive: 0.802.

As for B7, the enrichment score was inactive: 0.845.

B8: the enrichment score was inactive: 0.745.

Consider B9, for which the enrichment score is inactive: 1.63.

For the molecule B10, the enrichment score was active: 4.53.

B11: the enrichment score is inactive: 2.66.

Consider B12, for which the enrichment score was inactive: 1.01.

Regarding B13, the enrichment score was inactive: 1.6.

As for B14, the enrichment score is inactive: 0.848.

With B15, the enrichment score is inactive: 0.852.

For the molecule B16, the enrichment score was inactive: 0.395.

Consider B17, for which the enrichment score is inactive: 1.36.

With B18, the enrichment score is inactive: 0.416.

Turning to B19, the enrichment score is inactive: 0.488.

A further assay deals with SHP2 C-SH2 domain wild-type. The description is as above. The note with it: peptide library: pTyr-Var.
Consider B1, for which the enrichment score is inactive: 0.893.

Turning to B2, the enrichment score is inactive: 1.08.

Regarding B3, the enrichment score was inactive: 1.16.

Turning to B4, the enrichment score was inactive: 2.48.

Take B5: the enrichment score is inactive: 0.799.

On to B6, for which the enrichment score is inactive: 0.723.

As for B7, the enrichment score was inactive: 0.722.

For B8, the enrichment score was inactive: 0.552.

For the molecule B9, the enrichment score was inactive: 0.891.

On to B10, for which the enrichment score was active: 3.61.

On to B11, for which the enrichment score is inactive: 3.06.

With B12, the enrichment score is inactive: 0.899.

Regarding B13, the enrichment score is inactive: 1.58.

As for B14, the enrichment score was inactive: 0.84.

Turning to B15, the enrichment score is inactive: 0.785.

As for B16, the enrichment score was inactive: 0.281.

Consider B17, for which the enrichment score was inactive: 1.08.

In the case of B18, the enrichment score is inactive: 0.523.

For B19, the enrichment score is inactive: 0.532.

For another assay, the target named is SHP2 N-SH2 domain L43F. The assay is described as above. The note with it: peptide library: pTyr-Var.
Consider B1, for which the enrichment score was inactive: 0.842.

On to B2, for which the enrichment score was inactive: 1.21.

Consider B3, for which the enrichment score was inactive: 0.978.

As to B4, the enrichment score was inactive: 2.87.

For the molecule B5, the enrichment score was inactive: 0.628.

Regarding B6, the enrichment score is inactive: 0.648.

Regarding B7, the enrichment score is inactive: 0.743.

Regarding B8, the enrichment score is inactive: 0.577.

Take B9: the enrichment score is inactive: 0.789.

With B10, the enrichment score was active: 4.2.

B11: the enrichment score is inactive: 2.42.

In the case of B12, the enrichment score was inactive: 0.993.

In the case of B13, the enrichment score was inactive: 1.47.

On to B14, for which the enrichment score is inactive: 0.928.

In the case of B15, the enrichment score is inactive: 0.812.

As to B16, the enrichment score was inactive: 0.412.

For B17, the enrichment score was inactive: 1.17.

On to B18, for which the enrichment score was inactive: 0.367.

Regarding B19, the enrichment score is inactive: 0.576.

The target in another assay is SHP2 N-SH2 domain T42A. The assay is described as above. As to conditions: peptide library: pTyr-Var.
For B1, the enrichment score is inactive: 0.83.

As for B2, the enrichment score was inactive: 1.22.

As to B3, the enrichment score was inactive: 1.01.

For the molecule B4, the enrichment score was inactive: 3.12.

As for B5, the enrichment score was inactive: 0.62.

For B6, the enrichment score was inactive: 0.684.

For the molecule B7, the enrichment score is inactive: 0.622.

As for B8, the enrichment score is inactive: 0.64.

Consider B9, for which the enrichment score was inactive: 0.931.

As for B10, the enrichment score is active: 3.42.

Consider B11, for which the enrichment score was inactive: 2.03.

For the molecule B12, the enrichment score was inactive: 0.817.

Consider B13, for which the enrichment score is inactive: 1.79.

In the case of B14, the enrichment score is inactive: 0.713.

With B15, the enrichment score was inactive: 0.737.

Take B16: the enrichment score was inactive: 0.427.

On to B17, for which the enrichment score is inactive: 1.21.

Consider B18, for which the enrichment score is inactive: 0.468.

Consider B19, for which the enrichment score was inactive: 0.428.

The target in another assay is SHP2 N-SH2 domain T52S. The description is as above. The note with it: peptide library: pTyr-Var.
Turning to B1, the enrichment score is inactive: 0.494.

Regarding B2, the enrichment score is inactive: 1.33.

B3: the enrichment score was inactive: 0.827.

Regarding B4, the enrichment score is active: 3.33.

For B5, the enrichment score was inactive: 0.713.

For the molecule B6, the enrichment score is inactive: 0.62.

On to B7, for which the enrichment score was inactive: 0.653.

Take B8: the enrichment score was inactive: 0.615.

For the molecule B9, the enrichment score was inactive: 0.896.

In the case of B10, the enrichment score is active: 3.98.

Regarding B11, the enrichment score is inactive: 2.48.

B12: the enrichment score was inactive: 0.724.

Consider B13, for which the enrichment score is inactive: 1.76.

As for B14, the enrichment score is inactive: 0.651.

Regarding B15, the enrichment score is inactive: 0.794.

For B16, the enrichment score is inactive: 0.328.

B17: the enrichment score is inactive: 1.31.

With B18, the enrichment score is inactive: 0.609.

In the case of B19, the enrichment score is inactive: 0.484.

The target of another assay is SHP2 N-SH2 domain wild-type. Described as above. As to conditions: peptide library: pTyr-Var.
Take B1: the enrichment score was inactive: 1.25.

Regarding B2, the enrichment score was inactive: 1.11.

Consider B3, for which the enrichment score was inactive: 1.09.

B4: the enrichment score was inactive: 2.37.

For the molecule B5, the enrichment score is inactive: 0.69.

On to B6, for which the enrichment score is inactive: 0.711.

Take B7: the enrichment score is inactive: 0.86.

For B8, the enrichment score was inactive: 0.725.

On to B9, for which the enrichment score was inactive: 0.937.

As to B10, the enrichment score was active: 3.88.

For the molecule B11, the enrichment score is inactive: 2.59.

With B12, the enrichment score was inactive: 0.874.

In the case of B13, the enrichment score was inactive: 1.5.

Consider B14, for which the enrichment score was inactive: 0.77.

In the case of B15, the enrichment score is inactive: 0.991.

Turning to B16, the enrichment score was inactive: 0.36.

As for B17, the enrichment score is inactive: 1.37.

As to B18, the enrichment score was inactive: 1.11.

Consider B19, for which the enrichment score was inactive: 0.742.

The record behind these values is the supplement of paper PMC10369915.
